Experimental data taken from PubChem BioAssay AID2675 (National Center for Advancing Translational Sciences (NCATS), 2010).
Out of some 280,000 compounds screened, about 100 (0.036%) were called active. Inconclusive results, whose numbers are uncertain, are shown with a selection of clear calls. Calls come from the whole dose curve; as a rule, active = well fitted inhibition curve with a large enough effect in the signal ratio, with a control signal flat (not every such curve was filed as active); inconclusive = small, poorly fitted or top-dose-only effect, or effect the other way, or a change in a side signal; inactive = no such curve, though single readings can be large or run the other way; the % refers to the signal ratio. Potencies of inconclusive entries are doubtful fits and often do not repeat. A note “side channel” means that the fit belongs to a control or component signal, not to the main read-out.
% is set by controls: 0 for no effect and ±100 for the full control effect; potency is the fitted concentration of half-maximal effect; tags give direction and shape of the fitted curve or compound fluorescence and quenching.

What follows are compounds tested against Muscleblind-like protein 1 (Homo sapiens) (UniProt Q9NR56) (assay: qHTS Assay for Inhibitors of MBNL1-poly(CUG) RNA binding). Details: TR-FRET MBNL1-His/biotin-(CUG)12 binding, 665/545 ratio; activity change, negative = inhibition: at 57.5 µM (top of the series).
Chain of UniProt Q9NR56 (Q9NR56 whole entry, looked up): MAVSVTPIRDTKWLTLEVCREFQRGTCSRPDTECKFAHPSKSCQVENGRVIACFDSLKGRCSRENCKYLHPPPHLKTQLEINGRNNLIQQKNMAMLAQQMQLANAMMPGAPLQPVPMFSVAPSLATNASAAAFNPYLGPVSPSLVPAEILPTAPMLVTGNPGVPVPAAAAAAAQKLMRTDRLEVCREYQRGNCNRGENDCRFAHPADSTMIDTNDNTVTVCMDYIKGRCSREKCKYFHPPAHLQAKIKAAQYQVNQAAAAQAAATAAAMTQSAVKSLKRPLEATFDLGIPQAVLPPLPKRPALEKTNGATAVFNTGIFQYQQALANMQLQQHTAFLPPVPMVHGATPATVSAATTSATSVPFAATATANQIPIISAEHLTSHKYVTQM
How it was run: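 Compound titration spanned 92 nM–58 uM against the MBNL1-His/biotin-(CUG)12 complex. After 60 min at room temperature with 5 nM streptavidin-XL665 and 0.055 ng/ul terbium anti-His, ratiometric 665/545 nm emission (Ex 340 nm) normalized to controls.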
Cc1nc([N+](=O)[O-])c(C(=O)OCc2ccccc2)n1C was tested, and the Potency was inconclusive: 35.5 µM [quencher, side channel, single point]. In the case of N/C(=N\OC(=O)c1ccc(F)cc1)c1cccc([N+](=O)[O-])c1, the Potency is reported as inconclusive: 15.8 µM [quencher, partial curve]. O=C(CN1C(=O)C2C3C=CC(C3)C2C1=O)OCC(=O)c1ccc([N+](=O)[O-])cc1 (configuration not stated) was tested, and the Potency was inconclusive: 14.1 µM [quencher, side channel, partial curve]. O=C(C[n+]1ccc(C(=O)NCc2ccccc2)cc1)c1ccc(OC(F)F)cc1 was tested, and the Potency was inconclusive: 12.6 µM [quencher, side channel, partial curve]. CCCCNC(=O)c1ccc(NS(=O)(=O)c2ccc3[nH]c(=O)[nH]c3c2)cc1 was tested, and the “activity change, negative = inhibition” value was inactive: 3.54%. In the case of COc1ccc(C(=O)O/N=C(\N)Cc2ccc([N+](=O)[O-])cc2)c(OC)c1, the Potency is reported as inconclusive: 31.6 µM [quencher, side channel, single point]. For COc1ccc(OC)c(NC(=O)c2ccc3c(c2)C(=O)N(c2ccc(OC(C)=O)cc2)C3=O)c1, the Potency was inconclusive: 17.8 µM [quencher, side channel, partial curve]. In the case of Cc1cccc(NC(=O)Cn2cc(C(=O)C3CC3)c3ccccc32)c1C, the “activity change, negative = inhibition” value is reported as inactive: 4.49%. With Cn1c(/C(C#N)=C(\O)c2ccc(Br)s2)nc2ccccc21 the Potency was inconclusive: 0.794 µM [fluorescent, side channel, single point]. With CN1C(=O)NC(NS(=O)(=O)c2ccc(N)cc2)(C(F)(F)F)C1=O (configuration not stated) the “activity change, negative = inhibition” value was inactive: -8.43%. With CC(O)CNCc1ccc(-c2ccccc2)cc1 (configuration not stated) the “activity change, negative = inhibition” value was inactive: 6.19%. With Cc1ccc(C(=O)Nc2ccc(C(=O)N/N=C/c3c[nH]c4ccccc34)cc2)cc1 the “activity change, negative = inhibition” value was inactive: 12.2%. With CCOC(=O)/C(=C\C=C1/Sc2cc(OCC)c(OCC)cc2N1CC)C(C)=O the Potency was inconclusive: 0.708 µM [quencher, side channel, full curve]. In the case of Cc1cc(=O)[nH]c(N/N=C/c2cc(C)n(CC(F)(F)F)c2C)n1, the “activity change, negative = inhibition” value is reported as inactive: 6.34%. In the case of Cc1cccc(NC(=S)NC2CC3CCCC(C2)N3Cc2ccccc2)c1C (configuration not stated), the “activity change, negative = inhibition” value is reported as inactive: 3.8%. With COc1ccccc1NC(=S)N(Cc1ccco1)Cc1cc2cc(C)cc(C)c2[nH]c1=O the Potency was inconclusive: 31.6 µM [fluorescent, side channel, partial curve]. For Nc1ncncc1-c1ccc2ccccc2c1, the Potency was inconclusive: 28.2 µM [quencher, side channel, partial curve]. With CCCn1nc(NS(=O)(=O)c2cccc3nonc23)c2cc3ccccc3nc21 the Potency was inconclusive: 22.4 µM [quencher, side channel, partial curve]. With Cc1nn(-c2ccccc2)c2sc(-c3n[nH]c(=S)o3)cc12 the “activity change, negative = inhibition” value was inactive: 22.9%. With O=C(NNc1cc(N2CCOCC2)nc(N2CCOCC2)n1)c1ccc([N+](=O)[O-])cc1 the Potency was inconclusive: 7.94 µM [quencher, side channel, partial curve]. With CCN(CC)c1ccc(/C=C2\C(=O)c3ccc(C(=O)O)cc3C2=O)cc1 the Potency was inconclusive: 6.31 µM [quencher, side channel, partial curve]. With C=C(C)C(=O)Nc1cccc(C2=NOC3(C2)C[C@@H](C(N)=O)N(C(=O)C2(C)CC2)C3)c1 (some centres not stated) the Potency was inconclusive: 4.47 µM [inhibitor, full curve, poor fit]. For CC[n+]1ccc(/C=C/c2c[nH]c3ccccc23)cc1, the Potency was inconclusive: 15.8 µM [quencher, side channel, partial curve]. For COC(=O)c1cc2nc(-c3ccccc3)cc(C)n2n1, the Potency was inconclusive: 35.5 µM [quencher, side channel, single point]. For O=C(O)c1ccc(NS(=O)(=O)c2ccc3c(c2)C(=O)c2ccccc2C3=O)cc1, the Potency was inconclusive: 28.2 µM [quencher, side channel, partial curve]. With Cc1ccc(NC(=O)c2ccccc2F)cc1S(=O)(=O)N1CCCCCC1 the “activity change, negative = inhibition” value was inactive: -1.48%. With COC(=O)CCCC1=CC2=CC(=O)C(C)(OC(=O)c3cccs3)C(=O)C2=CN1C1CCCC1 (configuration not stated) the Potency was inconclusive: 25.1 µM [quencher, side channel, single point]. For O=c1[nH]n(-c2cccc3cccnc23)c(=O)c2ccccc12, the Potency was inconclusive: 10 µM [quencher, side channel, partial curve]. For O=C(Oc1ccc(OC(=O)N2CCOCC2)cc1)c1ccccc1, the “activity change, negative = inhibition” value was inactive: 2.17%. For COc1ccc(-n2nc3cc(C)c(NC(=S)NC(=O)c4ccccc4C)cc3n2)cc1, the “activity change, negative = inhibition” value was inactive: 78.7%. Cc1c(NC(=O)c2cc3ccccc3oc2=O)c(=O)n(-c2ccccc2)n1C was tested, and the Potency was inconclusive: 15.8 µM [quencher, side channel, partial curve]. For O=c1[nH]c(/C=C\c2ccc(O)c(O)c2)nc(O)c1[N+](=O)[O-], the Potency was inconclusive: 8.91 µM [quencher, side channel, partial curve]. For COc1ccc(-c2[nH]n(-c3ccc([N+](=O)[O-])cc3)c(=O)c2C=NCc2ccccc2)cc1, the “activity change, negative = inhibition” value was inactive: -0.486%. O=C(N/N=C\c1ccc([N+](=O)[O-])s1)c1cncc(Br)c1 was tested, and the Potency was inconclusive: 8.91 µM [quencher, side channel, full curve]. CC1Cc2ccccc2N1C(=O)COc1nc2ccccc2nc1N1CCOCC1 (configuration not stated) was tested, and the “activity change, negative = inhibition” value was inactive: 15%. In the case of CN1/C(=C\C(=O)C[n+]2cccc(C(N)=O)c2)C(C)(C)c2ccccc21, the Potency is reported as inconclusive: 22.4 µM [quencher, side channel, partial curve]. With Cc1nn(-c2ccccn2)c2c1C(c1ccccc1Cl)C1=C(N2)c2ccccc2C1=O (configuration not stated) the “activity change, negative = inhibition” value was inactive: -9.5%. In the case of O=c1cc(Cn2ccnc2)c2cc(O)ccc2o1, the Potency is reported as inconclusive: 31.6 µM [quencher, side channel, single point]. In the case of COc1ccc(CCC(=O)N2CCN(S(=O)(=O)c3ccc4ccccc4c3)CC2)cc1, the “activity change, negative = inhibition” value is reported as inactive: -5.33%. In the case of O=C(Nc1ccc(S(=O)(=O)NCc2ccccc2)cc1)c1ccc(Br)o1, the Potency is reported as inconclusive: 8.91 µM [quencher, side channel, partial curve]. CCn1c2ccccc2c2cc(/C=N/NC(=O)c3ccccc3C)ccc21 was tested, and the Potency was inconclusive: 0.0316 µM [fluorescent, side channel, full curve]. For O=C(CCCN1C(=O)S/C(=C\c2ccccc2)C1=O)NNC(=O)c1ccccc1O, the “activity change, negative = inhibition” value was inactive: -1.74%. For O=C(Nn1c(C2CCCCC2)nc2ccccc2c1=O)c1ccc([N+](=O)[O-])cc1, the Potency was inconclusive: 14.1 µM [quencher, side channel, single point]. In the case of O=C(Nc1ccc(Cl)cc1)Nn1cnnc1, the Potency is reported as inconclusive: 79.4 µM [inhibitor, partial curve]. With COc1ccccc1C1C([N+](=O)[O-])=CC([N+](=O)[O-])=CN1C (configuration not stated) the Potency was inconclusive: 22.4 µM [quencher, side channel, partial curve]. With Cc1nc(Nc2ccccc2F)c2oc3ccccc3c2n1 the “activity change, negative = inhibition” value was inactive: 26.5%. CCOC(=O)c1ccc2c(c1)C1C=CCC1C(C(=O)O)N2 (configuration not stated) was tested, and the Potency was inconclusive: 22.4 µM [quencher, side channel, single point]. For Cc1nc2sc(C(=O)c3ccccc3)c(N)c2c(C)c1C, the Potency was inconclusive: 3.98 µM [quencher, side channel, full curve]. In the case of COC(=O)CCCC1=CC2=CC(=O)C(C)(OC(=O)c3cccs3)C(=O)C2=CN1C1CCCCC1 (configuration not stated), the Potency is reported as inconclusive: 39.8 µM [quencher, side channel, single point]. In the case of O=C(O)c1ccc(Nc2cc(Cl)c3nonc3c2[N+](=O)[O-])cc1, the Potency is reported as inconclusive: 12.6 µM [quencher, side channel, partial curve]. In the case of CCOC(=O)/C(C#N)=C1\SS/C(=C(/C#N)C(=O)OCC)S1, the “activity change, negative = inhibition” value is reported as inactive: 64.2%. With CCN(CC)c1cc(NCCO)c([N+](=O)[O-])c2nonc12 the Potency was inconclusive: 11.2 µM [quencher, side channel, partial curve]. With COc1ccc(-n2nc(C(=O)NCC(=O)N3CCC(C)CC3)c3ccccc3c2=O)cc1Cl the Potency was inconclusive: 14.1 µM [quencher, side channel, partial curve]. In the case of CC1CCN(C(=O)c2cc3c(=O)n4ccccc4nc3s2)CC1, the Potency is reported as inconclusive: 14.1 µM [quencher, side channel, partial curve]. With Cc1ccc(-c2cc(C(=O)NCCCn3ccnc3)c3ccccc3n2)s1 the Potency was inconclusive: 15.8 µM [quencher, side channel, partial curve]. For COc1ccccc1N=Cc1c(O)c2ccccc2oc1=O, the Potency was inconclusive: 0.316 µM [fluorescent, side channel, full curve]. For O=C(COc1ccccc1[N+](=O)[O-])N/N=C/C=C/c1ccco1, the Potency was inconclusive: 20 µM [quencher, side channel, partial curve]. For Cn1c(CO)cnc1SCc1ccc([N+](=O)[O-])cc1, the Potency was inconclusive: 39.8 µM [quencher, single point]. With CCN(Cc1ccccc1)C(=O)C1CCN(Cc2ccc(SC)cc2)CC1 the “activity change, negative = inhibition” value was inactive: -13.2%. In the case of CCNc1ccc(C(=O)OCC(=O)NC(C)c2ccccc2)cc1[N+](=O)[O-] (configuration not stated), the Potency is reported as inconclusive: 0.794 µM [quencher, side channel, full curve, poor fit]. For COc1ccc2cc(C(c3nnnn3Cc3ccccc3)N3CCCCCC3)c(=O)[nH]c2c1 (configuration not stated), the Potency was inconclusive: 14.1 µM [quencher, side channel, partial curve]. CCOC(=O)CSc1nc2sc3c(c2c(=O)n1-c1ccc(OCC)cc1)CCN(C)C3 was tested, and the Potency was inconclusive: 12.6 µM [quencher, side channel, partial curve].
